Measured values taken from PubChem BioAssay AID995 (National Center for Advancing Translational Sciences (NCATS), 2007).
Several values for one entry are separate records, joined by “and”; a condition that tells them apart may be missing. Equal entries are not always repeated. Screen size: about 72,000 compounds; about 710 (0.99%) were called active. The shares of active, inactive and inconclusive entries below differ from those in the screen. The call rests on the fitted dose curve; in most records, active means well fitted inhibition curve with a large enough effect; inconclusive means small, poorly fitted or top-dose-only effect; inactive means no such curve, though single readings can be large or run the other way. Potencies of inconclusive entries are doubtful fits and often do not repeat.

Assay: qHTS Assay for Inhibitors of the ERK Signaling Pathway using a Homogeneous Screening Assay; further: nearly all actives have a fitted effect of over 55% in size
Conditions: HEK293-V1b, vasopressin-stimulated pERK AlphaScreen; activity, negative = inhibition: at 57.5 µM (top of the series) unless noted
How it was run: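 HEK293 cells stably expressing V1b receptor, preincubated 30 min at 37 °C with compound, then stimulated 5 min with 25 nM vasopressin. Phospho-ERK by AlphaScreen SureFire after 5 h RT; normalized to DMSO and vasopressin; AC50 by Hill fit.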
On the % scale 0 is the no-effect control and ±100 the full control effect; potency means the concentration at half of the fitted maximal effect; tags describe the fitted curve by direction and shape.

Potency, inconclusive:
O=S(=O)(/N=S1/CC=CCN1S(=O)(=O)c1ccccc1)c1ccccc1 (stereo not given) 25.1 µM [inhibitor, single point]
CC(=O)[C@@H]1[C@H]2[C@H](C(=O)[C@H]3OC[C@@H]2O3)[C@H]2C=Cc3ccccc3N21 12.6 µM [inhibitor, partial curve]
COc1ccc(C(=O)OCCN2C(=O)c3ccccc3C2=O)cc1OC 10 µM [inhibitor, partial curve]
CN(Cc1ccccc1)S(=O)(=O)c1ccc2c(c1)n(C)c(=O)n2C 20 µM [inhibitor, partial curve]
COc1cc(C(=O)COC(=O)Cc2cnc3sccn23)cc(OC)c1OC 25.1 µM [inhibitor, single point]
CCn1c(=N)n(CC(=O)C23CC4CC(CC(C4)C2)C3)c2ccccc21 20 µM [inhibitor, partial curve]
COc1ccc(-c2cc(NCCc3ccncc3)n3ncnc3n2)cc1 39.8 µM [inhibitor, single point]
c1csc(Cn2nnnc2CN2CCN(c3nc4ccccc4s3)CC2)c1 31.6 µM [inhibitor, single point]
Cc1ccccc1Cn1cc(/C=N/n2cnnc2)c2ccccc21 39.8 µM [inhibitor, single point]
CCCc1nc2oc3cc(OC)ccc3c(=O)c2c(=O)n1Cc1ccco1 39.8 µM [inhibitor, single point]
COC(=O)c1cc(NCc2ccc3c(c2)OCO3)ccc1N1CCOCC1 31.6 µM [inhibitor, single point]
O=C(Nc1nc2n(n1)C(c1ccc(Cl)cc1)CC(c1ccc(Cl)cc1)N2)c1ccco1 (stereo not given) 15.8 µM [inhibitor, partial curve]
Cc1ncsc1CCSc1nc2ccccc2c(=O)n1C 2 µM [inhibitor, partial curve]
CCOC(=O)C1=C(O)CSC1=Nc1ccccc1 20 µM [inhibitor, partial curve]
COC(=O)c1sc2ccccc2c1C(=O)OC 12.6 µM [inhibitor, partial curve]
CCSCCOC(=O)C1=C(C)NC2=C(C(=O)CCC2)C1c1coc2ccccc2c1=O (stereo not given) 10 µM [inhibitor, partial curve]
CCOc1ccc(-c2nc(C#N)c(N3CCOCC3)o2)cc1 12.6 µM [inhibitor, partial curve]
CN1CCN(c2ncc3nc(-c4ccc(Cl)cc4)c(=O)n(-c4ccccc4)c3n2)CC1 39.8 µM [inhibitor, single point]
Cc1cccc(-n2ncc3c(NCc4cccs4)ncnc32)c1 12.6 µM [inhibitor, partial curve]
CCCC(=O)NC(C)C(c1cccs1)N1CCN(c2ccccc2)CC1 (stereo not given) 25.1 µM [inhibitor, single point]
c1cncc(CNc2nc(-c3ccoc3)nc3ccccc23)c1 5.01 µM [inhibitor, full curve, poor fit]
CS(=O)(=O)Nc1cccc(-c2nc(Nc3ccncc3)c3ccccc3n2)c1 3.98 µM [inhibitor, full curve]
Cc1sc2nc3c4ccccc4c(NCc4ccco4)nn3c(=O)c2c1C 3.16 µM [inhibitor, single point]
COCCCNc1nc2ccccc2nc1NS(=O)(=O)c1cccs1 15.8 µM [inhibitor, partial curve]
Cn1c(=O)c2c(nc(SCc3cccnc3)n2Cc2ccccc2)n(C)c1=O 1.58 µM [inhibitor, partial curve, poor fit]
CC(C)CC(C(=O)Nc1oc(-c2ccco2)c(-c2ccco2)c1C#N)N1C(=O)c2ccccc2C1=O (stereo not given) 25.1 µM [inhibitor, single point]

Potency, inactive:
Cc1nc(N2CCOCC2)c2nc(-c3ccccc3)n(CCN3CCCC3)c2n1
CCOC(=O)c1c(C)[nH]c(C(=O)OCC(=O)Nc2cc(C)ccc2OC)c1C
COc1ccc(-n2c(Cc3cccn3C)nnc2SCC(=O)N2CCCc3ccccc32)cc1
O=c1cnc2cnc(Oc3cccc(Cl)c3)nc2n1Cc1ccc(F)cc1
CCC(c1nnnn1CCc1ccccc1)N(Cc1ccco1)Cc1cc2cccc(C)c2[nH]c1=O (stereo not given)
Cc1ccnc(NC(=O)Nc2ccc(F)cc2)c1
O=C(CSc1nnc(-c2ccccc2)n1Cc1ccco1)Nc1ccc2c(c1)OCCO2
CN(C)CCCN1c2ccccc2Sc2ccccc21
Cc1ccc(NC(=O)COC(=O)c2ccc3c(c2)NC(=O)C2CCCN32)cc1 (stereo not given)
COc1cc2cc(Oc3ccc4ccc(=O)oc4c3)c(=O)oc2cc1O
COc1ccc2c(c1OC)C(Cc1ccccc1)N1CCc3cc4c(cc3C1C2)OCO4 (stereo not given)

Potency, active:
COc1ccc(CCNc2ncnc3c2oc2ccccc23)cc1OC 31.6 µM

activity, negative = inhibition, inactive:
CC(C)C(=O)C(C)(C)CCc1ccccn1 -17.8% [at 11.5 µM]
COCC#Cc1ccc(C2NC(C(=O)O)CCC2C)cc1 (stereo not given) 0.986% [at 11.5 µM]
NC(N)=N/N=C\c1ccc(O)c(C(=O)O)c1 33.1% [at 11.5 µM]
c1ccc(CCCNc2nnnc3ccccc23)cc1 8.74% [at 11.5 µM]
COC(=O)C1=C(C)N(Cc2ccccc2)[C@]23O[C@](C(=O)OC)(C(=O)N2C1c1ccccc1)C1C(=O)N(C)C(=O)C13 (stereo not given in full) 4.75% [at 11.5 µM] and -6.67% [at 11.5 µM]

activity, negative = inhibition, inconclusive:
c1ccc2c(c1)[nH]c1c(NCC3CCCO3)ncnc12 (stereo not given) -35.3% [inhibitor]
Cc1ccc2c(c1)c1c3n2CCN[C@H]3CCC1 -46.7% [inhibitor]
